From PubChem BioAssay AID686978 (National Center for Advancing Translational Sciences (NCATS), 2013)
Where “and” joins values, the source holds several entries; their conditions need not be identical. Equal entries are not always repeated. Out of some 420,000 compounds screened, about 64,000 (15%) were called active. The shares of active, inactive and inconclusive entries below differ from those in the screen. Calls come from the whole dose curve; as a rule, active = well fitted inhibition curve with a large enough effect; inconclusive = small, poorly fitted or top-dose-only effect; inactive = flat fitted curve, though single readings scatter. Potencies of inconclusive entries are doubtful fits and often do not repeat.

Experiment: qHTS for Inhibitors of human tyrosyl-DNA phosphodiesterase 1 (TDP1): qHTS in cells in absence of CPT; note: nearly all actives have a fitted effect of over 55% in size
Settings: DT40 Tdp1-/- hTDP1 cells, no CPT, ATP luminescence, 48 h; activity change, negative = growth inhibition: at 46.2 µM (top of the series)
How it was run: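 Chicken DT40 Tdp1-/- cells complemented with human TDP1, screened without camptothecin (DMSO vehicle only), 400 cells/well. Compounds pin-transferred, cells incubated at 37 °C for at least 48 hr. Growth read as ATP-dependent luminescence (CellTiter-Glo, 30 min at RT).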
% is set by controls: 0 for no effect and ±100 for the full control effect; potency is the fitted concentration of half-maximal effect; tags give direction and shape of the fitted curve.

Structure (SMILES)	Potency	activity change, negative = growth inhibition
O=C(COc1ccccc1-c1ccccc1)N/N=C/c1cccnc1	active: 13 µM	
CCN(CC)S(=O)(=O)c1ccc(N2CCCCC2)c(NC(=O)C2CSC3(C)CCC(=O)N23)c1 (stereo not drawn)	inconclusive: 29.1 µM [inhibitor, single point]	
COC(=O)c1ccc(Cl)c(NC(=O)CN(c2ccccc2)S(=O)(=O)c2ccc(OC)cc2)c1	active: 16.4 µM	
CCCCCC(=O)N1CC2(CC(c3cccc(NC(=O)[C@@H]4CCC(=O)N4)c3)=NO2)C[C@@H]1C(N)=O (stereo partly drawn)		inactive: -18.8%
Cc1ccc(C(=O)Nc2scc(-c3ccccc3)c2C(=O)O)o1	inconclusive: 29.1 µM [inhibitor, single point]	
NS(=O)(=O)c1ccc(CNC(=O)C2CCCCC2)cc1		inactive: 4.59%
COc1ccc(OC2CCN(S(=O)(=O)c3ccc(OC)cc3)CC2)cc1	inconclusive: 25.9 µM [inhibitor, single point] and inconclusive: 9.2 µM [inhibitor, partial curve]	
COc1ccc(CCN(C)CC(O)COC(c2ccc(F)cc2)c2ccc(F)cc2)cc1OC (stereo not drawn)	inconclusive: 18.4 µM [inhibitor, single point]	
CC(C)c1ccc(NC(=O)N2CCN(S(=O)(=O)c3ccccc3)CC2)cc1		inactive: -28.7%
O=C(NNC(=O)c1ccccc1-n1cccc1)c1ccc(Cl)c(Cl)c1	inconclusive: 29.1 µM [inhibitor, single point]	
Clc1ccc(Oc2nc3c(Cl)cccc3s2)cc1Cl	inconclusive: 11.6 µM [inhibitor, partial curve, poor fit]	
CC(=O)Nc1nonc1NC(=O)CSc1nc2ccccc2o1	inconclusive: 29.1 µM [inhibitor, single point]	
CC[C@H](C)C(C(=O)N1CCN(C(=O)OC(C)(C)C)CC1)n1cc(C(CO)NC(=O)OC(C)(C)C)nn1 (stereo partly drawn)	inconclusive: 23.1 µM [inhibitor, single point]	
Cc1ccc(OCC(=O)c2cc(C)n(C3CC3)c2C)c([N+](=O)[O-])n1	active: 23.1 µM	
Cc1ccc(Nc2c([N+](=O)[O-])c(=O)oc3ccccc23)cc1	active: 11.6 µM	
O=C(NC1CCCC1)c1ccc(CSc2nc3ccncc3n2Cc2ccccc2F)cc1	inconclusive: 29.1 µM [inhibitor, partial curve, poor fit]	
C#CCn1cc(/C=N/Nc2nc3ccccc3[nH]2)c2ccccc21	inconclusive: 9.2 µM [inhibitor, partial curve]	
CC1(C)CC(=O)C(C2C3=C(CC(C)(C)CC3=O)Oc3c(Br)cc(Br)cc32)=C(O)C1 (stereo not drawn)	active: 18.4 µM	
CCOC(=O)N1CCc2c(sc(NCc3ccc(OCC)cc3)c2C(=O)Nc2ccc(OC)cc2OC)C1	inconclusive: 29.1 µM [inhibitor, single point]	
CCCC(=O)N(CCN1CCOCC1)c1nc2c(OC)ccc(C)c2s1		inconclusive: -31.3% [inhibitor]
Cc1ccc(-c2noc(CSc3nc(N)cc(N)n3)n2)cc1		inconclusive: -38.2% [inhibitor]
Cc1noc(C)c1C(=O)OCC(=O)Nc1cc(Cl)ccc1Oc1ccccc1	inconclusive: 20.6 µM [inhibitor, single point]	
Clc1ccc(-c2noc3ncnc(NCCCN4CCN(c5ccccc5)CC4)c23)cc1	inconclusive: 23.1 µM [inhibitor, single point]	

Structure (SMILES)	Potency	activity change, negative = growth inhibition
CCn1cc(C(=O)O)c(=O)c2cc(F)c(N3CCNCC3)nc21	inconclusive: 8.2 µM [inhibitor, partial curve]	
Cc1cc(NC(=O)CSc2nc3c([nH]c4ccccc43)c(=O)n2-c2cccc(Cl)c2)no1	inconclusive: 18.4 µM [inhibitor, partial curve, poor fit]	
Oc1ccc(-n2cccc2/C=N/n2cnnc2)cc1	inconclusive: 29.1 µM [inhibitor, partial curve, poor fit]	
COc1ccc(N2CCN(C(=O)C34CCC(C)(C(=O)C3)C4(C)C)CC2)cc1 (stereo not drawn)	inconclusive: 16.4 µM [inhibitor, partial curve, poor fit]	
O=S(=O)(c1ccccc1)N(CC1CO1)c1ccccc1 (stereo not drawn)	inconclusive: 29.1 µM [inhibitor, single point]	
COC(=O)C(NC(=O)COc1ccccc1)(Nc1nc2c(s1)CCCC2)C(F)(F)F (stereo not drawn)	inconclusive: 32.6 µM [inhibitor, partial curve, poor fit]	
CC(C)c1nc(SCC(=O)Nc2cccc(C(F)(F)F)c2)c2c(=O)n(C)c(=O)n(C)c2n1	active: 3.66 µM	
CCOC(=O)C1CCCN(C(=O)C2CCN(c3nnc(C)c4c(C)n(-c5ccccc5)nc34)CC2)C1 (stereo not drawn)	inconclusive: 25.9 µM [inhibitor, single point]	
C/C(=N\NC(N)=O)c1ccc(Cl)cc1		inactive: -0.963%
COc1ccccc1C(=O)NCc1ccc2c(c1)CCN2C(=O)c1ccncc1	inconclusive: 18.4 µM [inhibitor, single point]	
Cn1c(=O)c2c(nc(N/N=C/c3ccncc3)n2Cc2ccccc2)n(C)c1=O	inconclusive: 23.1 µM [inhibitor, single point]	
COCCCNc1nnc(Cc2ccc(Cl)cc2)c(=O)[nH]1	active: 0.82 µM	
COC(=O)c1ccc(CNC(=O)c2sccc2-c2ccccc2)cc1	inconclusive: 10.3 µM [inhibitor, partial curve, poor fit]	
CC(=O)Nc1ccc(Nc2nc3ccccc3nc2NS(=O)(=O)c2ccc(Cl)c([N+](=O)[O-])c2)cc1	active: 5.8 µM	
CCOc1ccc(CNS(=O)(=O)c2cccs2)cc1OCC	inconclusive: 29.1 µM [inhibitor, single point]	
CN(c1ccccc1)S(=O)(=O)c1cccc(NC(=O)c2ccc3ncsc3c2)c1	inconclusive: 29.1 µM [inhibitor, single point]	
N#Cc1ccccc1OCC(=O)N1CCN(C(=O)c2ccco2)CC1		inactive: 10.1%
NC(=NC1CCCCC1)c1ccc(Cl)cc1		inactive: -5.64%
COc1ccccc1NS(=O)(=O)c1cc(NC(=O)c2sccc2C)ccc1N1CCOCC1	inconclusive: 29.1 µM [inhibitor, single point]	
CCOc1ccc(N(CC(=O)N2CCN(c3ccccc3OC)CC2)S(=O)(=O)c2ccc(F)cc2)cc1	inconclusive: 25.9 µM [inhibitor, single point]	
CCOc1ccccc1NC(=O)C(Cc1ccccc1)NS(=O)(=O)c1ccc(Br)s1 (stereo not drawn)	inconclusive: 29.1 µM [inhibitor, single point]	
COc1cc(C)cc2oc(=O)c(CC(=O)N3CCN(C(=O)C4COc5ccccc5O4)CC3)c(C)c12 (stereo not drawn)	inconclusive: 25.9 µM [inhibitor, single point]	
CCCCNC(=O)CSc1nc(N)c(C(=O)Nc2ccc(OC)cc2)s1		inconclusive: -34.4% [inhibitor]

Structure (SMILES)	Potency	activity change, negative = growth inhibition
Cc1ccnc(NC(=O)c2ccccc2NC(=O)c2ccccc2)c1		inactive: -22%
Cc1cccc(NC(=O)CSCC(=O)NNC(=O)c2ccoc2C)c1		inactive: 6.12%
CC(C)CNC(=S)N1CCC(C(=O)c2ccc3c(c2)OCCO3)CC1	active: 23.1 µM	
CCn1cc(CN2CCCC(CNS(=O)(=O)c3cccc4cccnc34)C2)cn1 (stereo not drawn)		inactive: -4.33%
CS(=O)(=O)c1ccc(-c2nc(-c3ccc(F)cc3)c(-c3ccncc3)[nH]2)cc1	active: 27.5 µM	
COc1cc2c(c(OC)c1OC)-c1ccc(OC)c(=O)cc1[C@@H](N(C)CC#CCO)CC2	active: 0.184 µM	
COc1ccc(S(=O)(=O)N2CCCC(C(=O)O)C2)cc1Cl (stereo not drawn)		inactive: 10%
CCOC(=O)C1=C(COC(=O)/C=C/c2cc(Br)ccc2F)NC(=O)NC1C (stereo not drawn)		inactive: -13.9%
CC(C)C[C@@H]1CN=C(N)N1C[C@@H]1CCCN1C[C@H](C)N1C[C@@H](Cc2ccccc2)N(CCc2ccc(Cl)c(Cl)c2)C1=N	inconclusive: 29.1 µM [inhibitor, single point]	
Cc1ccc(S(=O)(=O)N2CCN(C(=O)CSc3cc(C)ccc3C)CC2)c(C)c1	inconclusive: 29.1 µM [inhibitor, single point]	
O=C(Nc1c(-c2ccccc2)nc2sccn12)c1ccccc1		inconclusive: -35.7% [inhibitor]
COc1ccc(CN2CCN(C(=O)Cn3ncn4cccc4c3=O)CC2)c(OC)c1OC		inactive: -6.22%
CC(C)(C)c1ccc(C(=O)NNC(=O)Cc2cccc3ccccc23)cc1	inconclusive: 9.2 µM [inhibitor, partial curve, poor fit]	
COc1ccc2[nH]c(C(=O)O)c(NC(=O)c3cc(OC)c(OC)c(OC)c3)c2c1		inactive: 20.5%
COc1cc2c(cc1OC)CN(C(=O)c1ccc([N+](=O)[O-])o1)CC2	inconclusive: 29.1 µM [inhibitor, single point]	
CCOc1ccc(OCCC(=O)OCC(=O)N2CCN(S(=O)(=O)c3ccc(C)cc3)CC2)cc1	active: 14.6 µM	
Cc1ccccc1CN1CCN(Cc2cc(=O)c3ccccc3[nH]2)CC1CCO (stereo not drawn)		inactive: -26.8%
COc1ccc(CNS(=O)(=O)c2cc(C(=O)Nc3cc(Cl)cc(Cl)c3)ccc2F)cc1	inconclusive: 29.1 µM [inhibitor, single point]	
CCOc1ccc(N=Nc2c(N)[nH][nH]c2=O)cc1	inconclusive: 23.1 µM [inhibitor, single point]	
Cc1ccc(C)c(S(=O)(=O)N2CCCOC2CNC(=O)C(=O)NCCc2ccco2)c1 (stereo not drawn)		inactive: -16%
CN(C)/N=C/C=C1\CCC/C(=C\c2ccc(F)c(F)c2)C1=O	active: 25.9 µM	
CCc1ccc(CNC(=O)C(CC)n2ccc3cc(S(=O)(=O)N4CCCCC4)ccc32)cc1 (stereo not drawn)	active: 23.1 µM	
